In the supplement of paper PMC4604168 (melanoma cell lines):
The other results are listed elsewhere or left out. Single values are uncertain, as repeats are few or missing.

Test system: 501Mel
Experiment: cell count relative to DMSO control; melanoma cells; higher = more viable cells
Details: library dose: low library concentration; 72 h
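Further: cell number obtained by counting DAPI-stained nuclei in high-throughput microscope images with image analysis software, screen run in 1,536-well plates.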

SMILES	cell count [%]
COc1ccc(C2=N[C@@H](c3ccc(Cl)cc3)[C@@H](c3ccc(Cl)cc3)N2C(=O)N2CCNC(=O)C2)c(OC(C)C)c1 [Nutlin-3] + C/C(O)=C(\C#N)C(=O)Nc1cc(Br)ccc1Br [LFM-A13] (first compound 0.1 µM, partner dose 2 µM)	93.5
CCCCCCCCCCCCCCCCCCOP(=O)([O-])OC1CC[N+](C)(C)CC1 [Perifosine] + O=C(Oc1ccc([N+](=O)[O-])cc1)N1CCC(C(O)(c2ccc3c(c2)OCO3)c2ccc3c(c2)OCO3)CC1 [JZL184] (first compound 0.4 µM, partner dose 1 µM)	127
CCN(CC)CCNC(=O)c1c(C)[nH]c(/C=C2\C(=O)Nc3ccc(F)cc32)c1C [sunitinib] + Cc1cc(SCc2sc(-c3ccc(C(F)(F)F)c(F)c3)nc2C)ccc1OCC(=O)O [GW0742] (first compound 0.4 µM, partner dose 2 µM)	80.1
Nc1nc(F)nc2c1ncn2[C@@H]1O[C@H](CO)[C@@H](O)[C@@H]1O [fludarabine] + C/C(O)=C(\C#N)C(=O)Nc1cc(Br)ccc1Br [LFM-A13] (first compound 0.2 µM, partner dose 2 µM)	3.21
Cc1cc(Nc2cc(N3CCN(C)CC3)nc(/C=C/c3ccccc3)n2)n[nH]1 + C/C(O)=C(\C#N)C(=O)Nc1cc(Br)ccc1Br [LFM-A13] (first compound 0.04 µM, partner dose 2 µM)	114
NC1(c2ccc(-c3nc4ccn5c(=O)[nH]nc5c4cc3-c3ccccc3)cc2)CCC1 + Cc1cc(SCc2sc(-c3ccc(C(F)(F)F)c(F)c3)nc2C)ccc1OCC(=O)O [GW0742] (first compound 0.4 µM, partner dose 2 µM)	90.1
